Laboratory results as given in the GPR68 mutational scans of Howard et al. (2025).
Scores whose standard error is large were omitted. Not listed are two conditions whose scores span a narrow range. Read del as a deletion of the residues named and ins as an insertion between two positions. For some assays here: The data file names ogerin without a concentration.

B1: GPR68, Q15743 (parent)
chain: MGNITADNSSMSCTIDHTIHQTLAPVVYVTVLVVGFPANCLSLYFGYLQIKARNELGVYLCNLTVADLFYICSLPFWLQYVLQHDNWSHGDLSCQVCGILLYENIYISVGFLCCISVDRYLAVAHPFRFHQFRTLKAAVGVSVVIWAKELLTSIYFLMHEEVIEDENQHRVCFEHYPIQAWQRAINYYRFLVGFLFPICLLLASYQGILRAVRRSHGTQKSRKDQIQRLVLSTVVIFLACFLPYHVLLLVRSVWEASCDFAKGVFNAYHFSLLLTSFNCVADPVLYCFVSETTHRDLARLRGACLAFLTCSRTGRAREAYPLGAPEASGKSGAQGEEPELLTKLHPAFQTPNSPGSGGFPTGRLA

What was measured:
[1] = variants of: B1; assay: cAMP reporter score (Enrich2 score, wild type = 0); higher = more signal; HEK293T, FACS bins
[2] = variants of: B1; assay: surface expression score (Enrich2 score, wild type = 0); higher = more signal; HEK293T, FACS bins

Row | Variant | cAMP reporter score ([1]; pH 6) | cAMP reporter score ([1]; pH 6, modulator: ogerin) | cAMP reporter score ([1]; pH 6.5, modulator: ogerin) | surface expression score [2]
1 | S108M | -1.1 | -2.11 |  | 
2 | S108P |  | -1.3 |  | 
3 | G35_F36insG |  | -1.19 | -1.11 | -1.58
4 | T313_R315del | -0.762 |  |  | 
5 | A184G | 1.77 | 0.208 |  | 1.13
6 | N104W | 0.057 |  |  | 
7 | N104S |  | -0.673 |  | 
8 | L56Y |  |  | -2.54 | -1.77
9 | S271Y | -1.06 | -1.75 | -2.77 | 
10 | S271W | -0.847 | -1.49 | -0.443 | -0.805
11 | S42D |  | -2.19 | 0.242 | -3.62
12 | L322T |  |  | 0.206 | 
13 | V212del |  |  | -1.56 | -0.075
14 | Q131W | 2.08 | -1.38 |  | 
15 | A316_R317insGS | 1.28 | 0.683 | 1.24 | 0.969
16 | L101T | -0.851 | -3.37 |  | 
17 | V289P | 1 | 0.89 | -0.154 | -1.71
18 | G357_G358del | -0.619 |  | 2.56 | 
19 | L247E | -1.06 | -1.07 |  | 
20 | P197N |  | -0.75 |  | 
21 | P197S |  | -1.96 |  | -3.56
22 | P197D | -0.65 | -0.694 |  | -1.38
23 | P197G | -1.14 |  | -0.458 | -2.86
24 | S116del |  |  | 0.287 | -0.228
25 | H130S |  | -0.623 | -0.448 | 
26 | H130F | -0.687 | 0.029 | -0.43 | -1.73

Row | Variant | cAMP reporter score ([1]; pH 6) | cAMP reporter score ([1]; pH 6, modulator: ogerin) | cAMP reporter score ([1]; pH 6.5, modulator: ogerin) | surface expression score [2]
27 | H130I | 0.437 |  | 0.225 | 0.555
28 | F36_P37insGSG |  | -0.347 | -1.51 | 
29 | I236A |  | -0.651 |  | 
30 | I236W |  | 0.697 |  | -2.83
31 | P338L | 2.22 | 0.234 | 0.412 | 
32 | C72P |  |  | -1.26 | -2.54
33 | C72M |  |  | 1.39 | 0.337
34 | V65N |  | -1.26 | -0.639 | -2.63
35 | L249D |  |  | -0.423 | -4.02
36 | R119_Y120insGSG |  | -4.2 |  | -1.97
37 | S257_C258del | -0.813 | -1.65 | -1.58 | -0.943
38 | D67A |  | -0.615 | -0.831 | 1.16
39 | K220E | 0.25 | -0.904 | -3.27 | 
40 | P75A |  |  | 0.25 | -1.21
41 | P75M |  |  |  | -0.319
42 | P75D |  | -1.46 | -1.26 | -2.81
43 | G362V | 0.404 | -0.101 |  | 1.16
44 | K262T |  | 2.51 |  | 0.143
45 | I185H | -0.174 |  | -0.603 | 
46 | I198_C199del |  | -1.05 | -1.42 | -1.19
47 | Y187_R189del |  |  | -1.64 | 
48 | F307W | 1.85 | 1.26 | 0.884 | 2
49 | D224C | 0.105 | -0.273 | 0.007 | 1.13
50 | D224K |  | 0.991 | 1.97 | 2.85
51 | D224M | 0.795 | 0.928 | 1.94 | 1.66
52 | N278T | -0.211 | -0.671 | -0.808 | 0.145
